Assay results published in patent US7960377B2 (priority 2008, dated 2011).
Read-outs that look alike come from different tables or passages of the source. Some entries share one result that the patent states for a list of compounds.

Key:
Format in all cases: cell-based
human CB2 receptor = human CB2 receptor (Homo sapiens, UniProt P34972); details: change in intracellular cAMP, CHO-K1 hCB2 cells
rat CB2 receptor = target: T1, rat CB2 receptor (Rattus norvegicus, UniProt Q9QZN9)
T1 sequence (Q9QZN9 1-360): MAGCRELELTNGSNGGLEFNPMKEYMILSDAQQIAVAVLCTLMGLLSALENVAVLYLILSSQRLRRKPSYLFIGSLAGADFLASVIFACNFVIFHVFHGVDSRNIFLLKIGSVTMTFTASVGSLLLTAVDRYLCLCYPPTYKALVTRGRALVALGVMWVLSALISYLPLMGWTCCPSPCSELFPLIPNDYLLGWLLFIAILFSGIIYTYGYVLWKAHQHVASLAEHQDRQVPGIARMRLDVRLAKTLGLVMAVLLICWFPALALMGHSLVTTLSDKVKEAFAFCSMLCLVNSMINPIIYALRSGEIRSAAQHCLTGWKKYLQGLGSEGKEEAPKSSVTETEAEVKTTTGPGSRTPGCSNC

human CB1 receptor = human CB1 receptor (Homo sapiens, UniProt P21554); details: change in intracellular cAMP, CHO-K1 hCB1 cells
Chain of human CB1 receptor (P21554 whole entry): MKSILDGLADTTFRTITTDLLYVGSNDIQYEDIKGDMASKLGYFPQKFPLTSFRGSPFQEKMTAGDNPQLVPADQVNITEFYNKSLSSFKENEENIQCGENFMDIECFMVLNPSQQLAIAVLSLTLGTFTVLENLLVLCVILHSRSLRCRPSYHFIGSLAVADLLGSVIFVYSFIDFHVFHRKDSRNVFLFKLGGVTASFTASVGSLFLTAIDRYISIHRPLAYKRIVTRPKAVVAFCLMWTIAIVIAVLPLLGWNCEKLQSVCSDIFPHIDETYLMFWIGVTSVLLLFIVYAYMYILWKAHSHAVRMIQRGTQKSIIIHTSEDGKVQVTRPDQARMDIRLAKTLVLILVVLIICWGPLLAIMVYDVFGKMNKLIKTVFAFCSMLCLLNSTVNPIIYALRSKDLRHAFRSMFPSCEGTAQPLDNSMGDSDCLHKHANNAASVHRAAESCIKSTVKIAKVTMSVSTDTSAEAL

[1] = change in intracellular cAMP, CHO-K1 rCB2 cells; bin >300 nM-3 μM, units given in the value; read-out: EC50 values for rat CB2 receptor
[2] = read-out: EC50 values for rat CB2 receptor; change in intracellular cAMP, CHO-K1 rCB2 cells; bin >300 nM-3 μM, units given in the value
[3] = read-out: EC50 values for rat CB2 receptor; change in intracellular cAMP, CHO-K1 rCB2 cells; bin in μM

Chain of human CB2 receptor (P34972 whole entry): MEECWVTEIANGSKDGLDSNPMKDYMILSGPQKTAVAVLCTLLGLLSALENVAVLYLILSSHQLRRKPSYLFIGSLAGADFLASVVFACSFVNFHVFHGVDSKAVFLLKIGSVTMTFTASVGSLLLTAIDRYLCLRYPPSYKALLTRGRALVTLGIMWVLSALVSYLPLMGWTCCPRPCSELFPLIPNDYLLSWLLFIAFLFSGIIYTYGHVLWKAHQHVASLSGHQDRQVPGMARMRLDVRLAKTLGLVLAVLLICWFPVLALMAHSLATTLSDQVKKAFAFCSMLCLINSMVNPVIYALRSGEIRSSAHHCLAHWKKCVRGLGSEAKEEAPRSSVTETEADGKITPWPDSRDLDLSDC

With `O=C(NC1CCCC1)c1noc(-c2cnc3c(c2)N(S(=O)(=O)c2ccc(F)cc2)CCO3)n1` [Example 213, N-cyclopentyl-5-(1-(4-fluorophenylsulfonyl)-2,3-dihydro-1H-pyrido[2,3-b][1,4]oxazin-7-yl)-1,2,4-oxadiazole-3-carboxamide] the EC50 (human CB2 receptor; bin >300 nM-3 μM, units given in the value) was 0.3 to 3 µM, the EC50 (rat CB2 receptor; change in intracellular cAMP, CHO-K1 rCB2 cells; bin in μM; read-out: EC50 values for rat CB2 receptor) was 3 to 30 µM and the EC50 (human CB1 receptor; class AR) was greater than 30 µM.

Compound `O=S(=O)(c1ccc(C(F)(F)F)cc1)N1CCOc2ncc(-c3ncc(-c4ccccc4)[nH]3)cc21` [Example 226, 7-(5-phenyl-1H-imidazol-2-yl)-1-(4-(trifluoromethyl)phenylsulfonyl)-2,3-dihydro-1H-pyrido[2,3-b][1,4]oxazine] has an EC50 (rat CB2 receptor; [1]) of 0.3 to 3 µM and an EC50 (human CB1 receptor; class AR) greater than 30 µM.

In the case of `CC(C)(C)NC(=O)c1cnc2c(c1)N(S(=O)(=O)Cc1ccc(Cl)cc1)CCO2` [Example 61, N-tert-butyl-1-(4-chlorobenzylsulfonyl)-2,3-dihydro-1H-pyrido[2,3-b][1,4]oxazine-7-carboxamide], the EC50 (human CB2 receptor; bin in μM) is reported as 3 to 30 µM, the EC50 (rat CB2 receptor; [1]) is reported as 0.3 to 3 µM and the EC50 (human CB1 receptor; bin in μM) is reported as 3 to 30 µM.

`O=C(c1cnc2c(c1)N(S(=O)(=O)c1ccc(Cl)c(Cl)c1)CCO2)N1CCN(S(=O)(=O)c2ccccc2)CC1` [Example 118, (1-(3,4-dichlorophenyl-sulfonyl)-2,3-dihydro-1H-pyrido[2,3-b][1,4]oxazin-7-yl)(4-(phenylsulfonyl)piperazin-1-yl)methanone] gave an EC50 (rat CB2 receptor; [1]) of 0.3 to 3 µM and an EC50 (human CB1 receptor; class AR) greater than 30 µM.

`CC(C)(C)N(CCO)C(=O)c1cnc2c(c1)N(S(=O)(=O)c1ccc(C(F)(F)F)cc1)CCO2` [Example 44, N-tert-butyl-N-(2-hydroxyethyl)-1-(4-(trifluoromethyl)phenylsulf-onyl)-2,3-dihydro-1H-pyrido[2,3-b][1,4]oxazine-7-carboxamide] showed an EC50 (rat CB2 receptor; [2]) of 0.3 to 3 µM.

Work on `COCCCNC(=O)c1cnc2c(c1)N(S(=O)(=O)c1cccnc1)CCO2` [Example 19, N-(3-methoxypropyl)-1-(pyridin-3-ylsulfonyl)-2,3-dihydro-1H-pyrido[2,3-b][1,4]oxazine-7-carboxamide] yielded an EC50 (rat CB2 receptor; [3]) of 3 to 30 µM.

`CCN(CC)C(=O)c1cnc2c(c1)N(S(=O)(=O)c1cccnc1)CCO2` [Example 18, N,N-diethyl-1-(pyridin-3-ylsulfonyl)-2,3-dihydro-1H-pyrido[2,3-b][1,4]oxazine-7-carboxamide] gave an EC50 (rat CB2 receptor; [3]) of 3 to 30 µM.

For `O=C(O)CC1COCCN1C(=O)c1cnc2c(c1)N(S(=O)(=O)c1ccc(C(F)(F)F)cc1)CCO2` (stereo not drawn) [Example 207], the EC50 (human CB1 receptor; class AR) was greater than 30 µM.

`CC1CN(C(=O)c2cnc3c(c2)N(S(=O)(=O)c2ccc(C(F)(F)F)cc2)CCO3)CC(C)O1` (stereo not drawn) [Example 198, (2,6-dimethylmorpholino)(1-(4-(trifluoromethyl)phenylsulf-onyl)-2,3-dihydro-1H-pyrido[2,3-b][1,4]oxazin-7-yl)methanone] was tested, and the EC50 (rat CB2 receptor; [2]) was 0.3 to 3 µM.
